Laboratory results taken from the supplement of paper PMC8728848.
Some of the results follow.

Experiments:
Experiment in all cases: glycan array binding signal (z-score within array); higher = stronger binding
Conditions in all cases: glycan notation: IUPAC condensed, linker removed
[1] = molecular target: Gal(b1-4)GlcNAc(b1-3)Gal(b1-4)GlcNAc(b1-6)[Gal(b1-3)]GalNAc
Summary of the method: (§1)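 Glycan array data came from 3228 arrays in the Consortium for Functional Glycomics database, and only arrays with an available protein sequence were kept. Glycan names were put into IUPAC-condensed notation, and columns mapping to the same glycan were averaged. The binding signal is a within-array Z-score, averaged across arrays of one protein sequence run at different concentrations or buffers and across linkers. A negative Z-score can be read as non-binding.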

[2] = molecular target: Gal(b1-4)GlcNAc(b1-3)Gal(b1-4)[Fuc(a1-3)]GlcNAc(b1-3)Gal(b1-4)[Fuc(a1-3)]GlcNAc
Summary of the method: as §1

[3] = molecular target: Gal(b1-4)GlcNAc(b1-3)GalNAc
Summary of the method: as §1

[4] = molecular target: Gal(b1-4)GlcNAc(b1-3)[Fuc(a1-3)GlcNAc(b1-6)]Gal(b1-4)Glc
Summary of the method: as §1

[5] = molecular target: Gal(b1-4)GlcNAc(b1-3)[Gal(b1-4)GlcNAc(b1-6)]Gal(b1-4)GlcNAc
Summary of the method: as §1

[6] = molecular target: Gal(b1-4)GlcNAc(b1-3)[GlcNAc(b1-6)]Gal(b1-4)GlcNAc
Summary of the method: as §1

[7] = molecular target: Gal(b1-4)GlcNAc(b1-6)Gal(b1-4)GlcNAc
Summary of the method: as §1

[8] = molecular target: Gal(b1-4)GlcNAc(b1-6)GalNAc
Summary of the method: as §1

[9] = molecular target: Gal(b1-4)GlcNAc(b1-6)[Gal(b1-3)]GalNAc
Summary of the method: as §1

[10] = molecular target: Gal(b1-4)GlcNAc(b1-6)[Gal(b1-4)GlcNAc(b1-3)]GalNAc
Summary of the method: as §1

Gal(b1-4)GlcNAc6P = molecular target: Gal(b1-4)GlcNAc6P
Summary of the method: as §1

Gal(b1-6)Gal = molecular target: Gal(b1-6)Gal
Summary of the method: as §1

Gal3S(b1-3)GalNAc = molecular target: Gal3S(b1-3)GalNAc
Summary of the method: as §1

Gal3S(b1-3)GlcNAc = molecular target: Gal3S(b1-3)GlcNAc
Summary of the method: as §1

[11] = molecular target: Gal3S(b1-3)[Fuc(a1-4)]GlcNAc
Summary of the method: as §1

Gal3S(b1-4)Glc = molecular target: Gal3S(b1-4)Glc
Summary of the method: as §1

Gal3S(b1-4)Glc6S = molecular target: Gal3S(b1-4)Glc6S
Summary of the method: as §1

Gal3S(b1-4)GlcNAc = molecular target: Gal3S(b1-4)GlcNAc
Summary of the method: as §1

[12] = molecular target: Gal3S(b1-4)[Fuc(a1-3)]Glc6S
Summary of the method: as §1

[13] = molecular target: Gal3S(b1-4)[Fuc(a1-3)]GlcNAc
Summary of the method: as §1

[14] = molecular target: Gal3S(b1-4)[Fuc(a1-3)]GlcNAc6S
Summary of the method: as §1

Gal3S4S(b1-4)GlcNAc = molecular target: Gal3S4S(b1-4)GlcNAc
Summary of the method: as §1

Gal3S6S(b1-4)GlcNAc = molecular target: Gal3S6S(b1-4)GlcNAc
Summary of the method: as §1

Gal3S6S(b1-4)GlcNAc6S = molecular target: Gal3S6S(b1-4)GlcNAc6S
Summary of the method: as §1

Gal4S(b1-4)GlcNAc = molecular target: Gal4S(b1-4)GlcNAc
Summary of the method: as §1

Gal4S6S(b1-4)GlcNAc = molecular target: Gal4S6S(b1-4)GlcNAc
Summary of the method: as §1

Gal6P(b1-4)GlcNAc = molecular target: Gal6P(b1-4)GlcNAc
Summary of the method: as §1

Gal6S(b1-3)GlcNAc = molecular target: Gal6S(b1-3)GlcNAc
Summary of the method: as §1

Gal6S(b1-3)GlcNAc6S = molecular target: Gal6S(b1-3)GlcNAc6S
Summary of the method: as §1

Gal6S(b1-4)Glc = molecular target: Gal6S(b1-4)Glc
Summary of the method: as §1

Gal6S(b1-4)Glc6S = molecular target: Gal6S(b1-4)Glc6S
Summary of the method: as §1

Gal6S(b1-4)GlcNAc = molecular target: Gal6S(b1-4)GlcNAc
Summary of the method: as §1

Gal6S(b1-4)GlcNAc6S = molecular target: Gal6S(b1-4)GlcNAc6S
Summary of the method: as §1

GalNAc(a1-3)Gal = molecular target: GalNAc(a1-3)Gal
Summary of the method: as §1

GalNAc(a1-3)GalNAc = molecular target: GalNAc(a1-3)GalNAc
Summary of the method: as §1

[15] = molecular target: GalNAc(a1-3)GalNAc(b1-3)Gal(a1-4)Gal(b1-4)Glc
Summary of the method: as §1

[16] = molecular target: GalNAc(a1-3)GalNAc(b1-3)Gal(a1-4)Gal(b1-4)GlcNAc
Summary of the method: as §1

GalNAc(b1-3)Gal = molecular target: GalNAc(b1-3)Gal
Summary of the method: as §1

[17] = molecular target: GalNAc(b1-3)Gal(a1-4)Gal(b1-4)GlcNAc
Summary of the method: as §1

[18] = molecular target: GalNAc(b1-3)Gal(a1-4)Gal(b1-4)GlcNAc(b1-3)Gal(b1-4)Glc
Summary of the method: as §1

[19] = molecular target: GalNAc(b1-3)Gal(a1-6)Gal(b1-4)Glc
Summary of the method: as §1

GalNAc(b1-3)GalNAc = molecular target: GalNAc(b1-3)GalNAc
Summary of the method: as §1

GalNAc(b1-3)GlcNAc = molecular target: GalNAc(b1-3)GlcNAc
Summary of the method: as §1

GalNAc(b1-4)Gal(b1-4)Glc = molecular target: GalNAc(b1-4)Gal(b1-4)Glc
Summary of the method: as §1

GalNAc(b1-4)GlcNAc = molecular target: GalNAc(b1-4)GlcNAc
Summary of the method: as §1

B1: PX14379A-bvu-539-28-539 (Bacteroides vulgatus) (protein)
chain: EPYSEIIEEDYVPTEADEIALLATTYSQLRFVMDWYGLFDLQEESGDVIVTPTRPNGWDDGGTYKQMHKHTWDNQQGQPQSIWDYCYKGIANANKILKRADEGFFTEESKPKVVAEVKGVRALWYSILCDTHGNIPIQTSFSEEVPVQSTRKQVFDFIINELKEVMPNLPTEVNKSTYGRLTQWGAKCLMARMYLNAGVYTGTPMWNECLEQCNDIINSGLFSLETNYTDIFKTENSGCVETIFAIPYDEVYNEGDNNGPVFGAHMKFLSSNSRKVFNMQTTPWGGSAANPQFINSYDPDDMRLKYTWLQGDQYSPDGVLITTFPNKLPSIYKTDTDDGYRVGKYEIKVGAKSLLSNDFPYFRYTEVLLMKAECLLRLGQNETEAAHIVSQIRERAFRESAHPEKATVDAAWLKGDTHINYGTLDEKGQIDDAGNTEVVELGGLYDEWGWEFAAEARRRTDMIRFGTYQKKSWFNHTPTANDLNGNSILFPIHLDHLNTNPNLQQNPGYAGK
glycan array binding signal (z-score) [1]: 0.048 | glycan array binding signal (z-score) [2]: -0.088 | glycan array binding signal (z-score) [3]: -0.16 | glycan array binding signal (z-score) [4]: -0.262 | glycan array binding signal (z-score) [5]: 0.405 | glycan array binding signal (z-score) [6]: -0.435 | glycan array binding signal (z-score) [7]: -0.415 | glycan array binding signal (z-score) [8]: 0.024 | glycan array binding signal (z-score) [9]: -0.324 | glycan array binding signal (z-score) [10]: -0.059 | glycan array binding signal (z-score) (Gal(b1-4)GlcNAc6P): 0.214 | glycan array binding signal (z-score) (Gal(b1-6)Gal): -0.177 | glycan array binding signal (z-score) (Gal3S(b1-3)GalNAc): -0.302 | glycan array binding signal (z-score) (Gal3S(b1-3)GlcNAc): -0.072 | glycan array binding signal (z-score) [11]: -0.301 | glycan array binding signal (z-score) (Gal3S(b1-4)Glc): -0.201 | glycan array binding signal (z-score) (Gal3S(b1-4)Glc6S): -0.224 | glycan array binding signal (z-score) (Gal3S(b1-4)GlcNAc): -0.224 | glycan array binding signal (z-score) [12]: 0.048 | glycan array binding signal (z-score) [13]: -0.454 | glycan array binding signal (z-score) [14]: -0.291 | glycan array binding signal (z-score) (Gal3S4S(b1-4)GlcNAc): 0.084 | glycan array binding signal (z-score) (Gal3S6S(b1-4)GlcNAc): -0.387 | glycan array binding signal (z-score) (Gal3S6S(b1-4)GlcNAc6S): -0.19 | glycan array binding signal (z-score) (Gal4S(b1-4)GlcNAc): -0.294 | glycan array binding signal (z-score) (Gal4S6S(b1-4)GlcNAc): -0.533 | glycan array binding signal (z-score) (Gal6P(b1-4)GlcNAc): -0.206 | glycan array binding signal (z-score) (Gal6S(b1-3)GlcNAc): -0.343 | glycan array binding signal (z-score) (Gal6S(b1-3)GlcNAc6S): 0.905 | glycan array binding signal (z-score) (Gal6S(b1-4)Glc): -0.064 | glycan array binding signal (z-score) (Gal6S(b1-4)Glc6S): -0.28 | glycan array binding signal (z-score) (Gal6S(b1-4)GlcNAc): -0.094 | glycan array binding signal (z-score) (Gal6S(b1-4)GlcNAc6S): -0.175 | glycan array binding signal (z-score) (GalNAc(a1-3)Gal): 0.01 | glycan array binding signal (z-score) (GalNAc(a1-3)GalNAc): -0.477 | glycan array binding signal (z-score) [15]: -0.138 | glycan array binding signal (z-score) [16]: -0.436 | glycan array binding signal (z-score) (GalNAc(b1-3)Gal): -0.484 | glycan array binding signal (z-score) [17]: -0.271 | glycan array binding signal (z-score) [18]: 0.841 | glycan array binding signal (z-score) [19]: 2.98 | glycan array binding signal (z-score) (GalNAc(b1-3)GalNAc): -0.551 | glycan array binding signal (z-score) (GalNAc(b1-3)GlcNAc): -0.041 | glycan array binding signal (z-score) (GalNAc(b1-4)Gal(b1-4)Glc): -0.5 | glycan array binding signal (z-score) (GalNAc(b1-4)GlcNAc): -0.26
